We go through 14 molecules from paper PMC12136788.

The labels stand for the following.
T1: UNK ZnF1-3 (human, UniProt Q9C0B0 31-174)
T1 sequence: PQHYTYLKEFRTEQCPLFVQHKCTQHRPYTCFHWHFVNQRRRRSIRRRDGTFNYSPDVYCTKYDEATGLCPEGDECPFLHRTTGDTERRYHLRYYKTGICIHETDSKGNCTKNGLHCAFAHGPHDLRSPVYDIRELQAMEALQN

B1: 70285164_70285284_80_3pUTR_ENSMUSG00000043998_ENSMUST00000060579|mouse|control|control (ssRNA)
RNA: GGGAGUUCUACAGUCCGACGAUCGCGUCCUCUGCGCGCUCAUCCUUGCUCGCACGGCGGAACGGCGACACCGAACGCCGCAGCCUCGCCCCGCUCCGGCAGCGACCGCUCUGACAAGCCGCGACUGGCCUGCGAGCGCCCGGGCAACAGAGGAUUGAGCAUCA
B2: chr12:105553856:105553857:+_ENSG00000136051_ENST00000332180|hu_mus|motif|central (ssRNA)
RNA: GGGAGUUCUACAGUCCGACGAUCAAUGAUAUAGAAAUUUCGGAGAUGUAUAUUCUUUGGCCUUCGAAAUUCUGGAGCAAAAACAUCGGCAAGCAUUUUGAAAUAUUCUGUACCUUCAGCAGAGUUCCGUGUAUGAUCACUGAGCAACAGAGGAUUGAGCAUCA
B3: chr3:37096630:37096631:-_ENSG00000093167_ENST00000421276|perfect_dup|FALSE|FALSE (ssRNA)
RNA: GGGAGUUCUACAGUCCGACGAUCUUGCUCCAAGGUAGUUAUAUCCUGUUCUGCUUUUGAAAGCUUAAAUUUGUAUUCGCUAAUUUGUCUAUUGGCAUCUCUCUGCAUUUCGAUGAACUGCAAGUCUGAGCCAUUCUGCAGUCCCAACAGAGGAUUGAGCAUCA
B4: chr3:41268740:41268741:+_ENSG00000168036_ENST00000349496|perfect_dup|FALSE|FALSE (ssRNA)
RNA: GGGAGUUCUACAGUCCGACGAUCCACUCUGCUUGUGGUCCACAGAAGCUUCUCAUAAGUGUAGGUCCUCAUUAUGUUUACUAAGGCUUGGGGUCCACCACUGGCCAGAAUGAUGAGCUUGCUCUCUUGAUUGCCAUAAGCUAACAACAGAGGAUUGAGCAUCA
B5: chr16:45382771:45382772:-_ENSMUSG00000022661_ENSMUST00000163230|mus_hu|motif|central (ssRNA)
RNA: GGGAGUUCUACAGUCCGACGAUCCUGGGUCAUGUUAUAAGACAAAUGGACAGGGAGGGCAUGCUUCUCAAAAAAUGUGAGCGGUUGUCUAAGACUAACAAUAUUUAUCUAGCUAUAAAAAUAAGUUAAAUGAAUAAGUUAAGACAACAGAGGAUUGAGCAUCA
B6: 197562582_197566200_1244_3pUTR_ENSG00000186001_ENST00000438796|human|control|control (ssRNA)
RNA: GGGAGUUCUACAGUCCGACGAUCUGGUGAACCCUCAUGAGAGAUUCGCCGCUGUUCAAUAUACGCCAUAAACUGUGAACUAAGGCUGUCUGGGUCUGGUCCCUUGGGCUGUCUCACCUCGGCCUCCUCUUCCUCUGCGGUGCACAACAGAGGAUUGAGCAUCA
B7: chr15:64980993:64980994:-_ENSG00000180304_ENST00000326005|hu_hu|FALSE|FALSE (ssRNA)
RNA: GGGAGUUCUACAGUCCGACGAUCAACCAUGAACAUCACAUCUGGCCGAGAGGGGACACAGGGAUGGCCUGGACGUACAAUCUCAAAGCCCAAGAAGCUGAAGGUCUUCAGGAGUGGAGCUCUGUCUUCUCGGCCCUUCCUGAACAACAGAGGAUUGAGCAUCA
B8: chr6:52962840:52962841:+_ENSG00000112146_ENST00000323557|hu_mus|motif|central (ssRNA)
RNA: GGGAGUUCUACAGUCCGACGAUCACAACAAAAGUGUCCUUAACAACUUCUAAUUUCAAAACAAAGUACCCCAGGAAUCAACGGUCCUUUUAAAUAAAAAAAAUAAUUUAUACUCUUCUUAAAGGAAUUCCAACAACUUAAAGUCAACAGAGGAUUGAGCAUCA
B9: chr2:136513182:136513183:+_ENSG00000144224_ENST00000272638|hu_hu|FALSE|FALSE (ssRNA)
RNA: GGGAGUUCUACAGUCCGACGAUCAUCAGAAGUGGGUGGUAUCUCACAAAGCUCUGCAUUUCUGGACUGAGAGUUUUCACAAGUGUUGUUAGGUUCAAAUGACGCAGAUGGAGUAGACACUGAACUUUCUGACUGACUGCCAUUCAACAGAGGAUUGAGCAUCA
B10: chr5:37680062:37680063:+_ENSMUSG00000029121_ENSMUST00000031004|mus_hu|mus_mus_mus_hu_False|48_88 (ssRNA)
RNA: GGGAGUUCUACAGUCCGACGAUCUUUGGGUGUAGCUGGUACCUCGUACACAGGCCCGUCAUACAUGCCCCUGGAAACCCCUUGCAACCCGAAAACCUUAUUCCUGAUUUUGACGCGCUGGUACAGGUGCUCCGGGAACGCCUUCAACAGAGGAUUGAGCAUCA
B11: 118513148_118513779_6995_CDS_ENSG00000172869_ENST00000311085|human|control|control (ssRNA)
RNA: GGGAGUUCUACAGUCCGACGAUCUGCUGUGAGAAUCUCACAGAGCAAGACUGUAAGCCCUGACUGGGCUUCCUCGCCAGAAGAAUUCAAAAGUCGAAUUAGACAAGUUAUUCCUGGCCAUUGAGCUGGUGACGUAUUGGGAGUCAACAGAGGAUUGAGCAUCA
B12: chr1:156945260:156945261:-_ENSMUSG00000056708_ENSMUST00000055322|mus_hu|FALSE|FALSE (ssRNA)
RNA: GGGAGUUCUACAGUCCGACGAUCUCCCCGGAGAACGAAUGGGGAACUCCCCGGCCCAAACCUUUUAGCCGCUUCCUUCUCCACGCAGCCGGCAGAGGAAAGUCCCUGUCUGCCCCCAAUCUCUUAAACCCUGGGGAAGGAGUGCAACAGAGGAUUGAGCAUCA
B13: chrX:98838459:98838460:+_ENSMUSG00000034160_ENSMUST00000044475|mus_mus|motif|central (ssRNA)
RNA: GGGAGUUCUACAGUCCGACGAUCUCCCAAAUUCGAAUAGGCUUCUGCUAGAAGGGGAUUCUGUUUAAUUGCCAAGGUGCGGAAAUGAGCAGAUCUGUCCAGCCUUCGACACUGGAAGUGUAUAGAUGAAAGUAAUAAAAGAACCAACAGAGGAUUGAGCAUCA
B14: chr17:65740002:65740003:+_ENSG00000130935_ENST00000581375|hu_hu|hu_hu_hu_mus_False|78_108 (ssRNA)
RNA: GGGAGUUCUACAGUCCGACGAUCAACCCGUUCUUGCUCCCUGGACGAACAGGAAGACAUAAAAGAGAAAAAAUAUAUAUCCAUCAAGUUAGGUGUGGUGGCCACACCUUUACUCCCAGCACUUUGGGAGGUGGAUCUCUGAGUCAACAGAGGAUUGAGCAUCA

The list shows a part of the results.

This assay concerns the target T1, UNK ZnF1-3. Briefly: nsRBNS (natural sequence RNA bind-n-seq); RBNS binding buffer (assumed for nsRBNS): 25 mM Tris pH 7.5, 150 mM KCl, 3 mM MgCl2, 0.01% Triton X-100, 500 ug/ml BSA, 20 U/ml SUPERase-In, 4 C; UNK is unkempt and MSI1 is Musashi-1; names of the RNAs are library labels; protein concentration not given here; high values mean tight binding.
As for B1, the binding signal is 0.379 enrichment R.
With B2 the figure was 0.766 enrichment R; with B3, 0.628 enrichment R.
With B4 the figure was 1.19 enrichment R.
B5 gave a binding signal of 1.44 enrichment R.
As for B6, the figure is 0.641 enrichment R.
For the molecule B7, the binding signal turned out to be 1.19 enrichment R.
As for B8, the figure is 2.15 enrichment R.
For B9, the binding signal amounted to 1.04 enrichment R.
As for B10, the figure is 0.693 enrichment R.
On to B11, for which the binding signal stood at 0.737 enrichment R.
As for B12, the figure is 1.08 enrichment R; as for B13, 1.23 enrichment R; as for B14, 1.03 enrichment R.
